Experimental data reported in the supplement of paper PMC4967469.

Key:
Assay in all cases: Viability of human cancer cell lines after 72 h of drug (GDSC screen)
Tretinoin = compound: CC1=C(/C=C/C(C)=C/C=C/C(C)=C/C(=O)O)C(C)(C)CCC1 [Tretinoin]; details: top dose 10 µM; top dose inferred
Protocol: (§1)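 Human cancer cell lines in 384-well plates, medium with 10% serum, drug for 72 h over a 256-fold dose range (nine 2-fold or five 4-fold steps up to the top dose). Adherent lines were fixed and stained with the nucleic acid dye Syto60, suspension lines read with resazurin; signal relative to control wells, capped at 0 and 100%. One two-parameter sigmoid per drug and line, fitted in a mixed model over all curves with the slope shared within a line.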

GSK690693 = compound: CCn1c(-c2nonc2N)nc2c(C#CC(C)(C)O)ncc(OC[C@H]3CCCNC3)c21 [GSK690693]; details: top dose 10.24 µM; top dose inferred
Protocol: as §1

UNC0638 = compound: COc1cc2c(NC3CCN(C(C)C)CC3)nc(C3CCCCC3)nc2cc1OCCCN1CCCC1 [UNC0638]
Protocol: as §1

WH-4-023 = compound: COc1ccc(N(C(=O)Oc2c(C)cccc2C)c2ccnc(Nc3ccc(N4CCN(C)CC4)cc3)n2)c(OC)c1 [WH-4-023]; details: top dose 5.12 µM; top dose inferred
Protocol: as §1

SB-505124 = compound: Cc1cccc(-c2[nH]c(C(C)(C)C)nc2-c2ccc3c(c2)OCO3)n1 [SB-505124]; details: top dose 10 µM; top dose inferred
Protocol: as §1

BX-795 = compound: O=C(NCCCNc1nc(Nc2cccc(NC(=O)N3CCCC3)c2)ncc1I)c1cccs1 [BX-795]; details: top dose 5 µM; top dose inferred
Protocol: as §1

PI-103 = compound: Oc1cccc(-c2nc(N3CCOCC3)c3oc4ncccc4c3n2)c1 [PI-103]; details: top dose 10.24 µM
Protocol: as §1

[1] = top dose 20 µM, screen: GDSC drug entry 1236, top dose inferred
[2] = top dose 40 µM, screen: GDSC drug entry 245

Cell Line | AUC (Tretinoin) | pIC50 (Tretinoin) | AUC (GSK690693) | pIC50 (GSK690693) | AUC (UNC0638; [1]) | pIC50 (UNC0638; [1]) | AUC (UNC0638; [2]) | pIC50 (UNC0638; [2]) | AUC (WH-4-023) | pIC50 (WH-4-023) | AUC (SB-505124) | pIC50 (SB-505124) | AUC (BX-795) | pIC50 (BX-795) | AUC (PI-103) | pIC50 (PI-103)
HCC2218 (breast, suspension) | 0.965 | < 5.00 | 0.819 | 5.10 | 0.805 | 4.87 | 0.682 | 5.03 | 0.974 | < 5.29 | 0.964 | < 5.00 | 0.982 | < 5.30 | 0.518 | 6.14
HD-MY-Z (Hodgkin lymphoma, adherent) | 0.931 | < 5.00 | 0.983 | < 4.99 | 0.802 | 5.00 | 0.648 | 5.19 | 0.982 | < 5.29 | 0.972 | < 5.00 | 0.868 | 5.34 | 0.388 | 6.50
HDLM-2 (Hodgkin lymphoma, suspension) | 0.84 | 5.17 | 0.989 | < 4.99 | 0.831 | 4.91 | 0.796 | 4.74 | 0.937 | < 5.29 | 0.978 | < 5.00 | 0.835 | 5.49 | 0.986 | < 4.99
HOP-62 (lung adenocarcinoma, adherent) | 0.987 | < 5.00 | 0.984 | < 4.99 | 0.736 | 5.23 | 0.677 | 5.11 | 0.588 | 6.25 | 0.958 | < 5.00 | 0.854 | 5.41 | 0.662 | 5.74
HSC-39 (stomach, suspension) | 0.986 | < 5.00 | 0.903 | 4.99 | 0.821 | 5.02 | 0.99 | < 4.40 | 0.677 | 6.03 | 0.968 | < 5.00 | 0.721 | 5.92 | 0.532 | 6.11
HT (B-cell lymphoma, suspension) | 0.981 | < 5.00 | 0.866 | 5.10 | 0.802 | 5.05 | 0.69 | 5.09 | 0.913 | < 5.29 | 0.976 | < 5.00 | 0.939 | < 5.30 | 0.488 | 6.22
HUTU-80 (digestive system, adherent) | 0.991 | < 5.00 | 0.889 | 5.09 | 0.976 | < 4.70 | 0.749 | 4.95 | 0.412 | 6.72 | 0.829 | 5.32 | 0.568 | 6.33 | 0.257 | 6.82
IA-LM (large cell lung carcinoma, adherent) | 0.983 | < 5.00 | 0.904 | < 4.99 | 0.948 | < 4.70 | 0.859 | < 4.40 | 0.95 | < 5.29 | 0.901 | < 5.00 | 0.881 | < 5.30 | 0.792 | 5.28
IMR-5 (neuroblastoma, adherent) | 0.973 | < 5.00 | 0.96 | < 4.99 | 0.785 | 5.15 | 0.667 | 5.18 | 0.916 | < 5.29 | 0.974 | < 5.00 | 0.982 | < 5.30 | 0.564 | 6.03
IST-MEL1 (melanoma, adherent) | 0.95 | < 5.00 | 0.922 | < 4.99 | 0.647 | 5.46 | 0.703 | 4.97 | 0.848 | 5.30 | 0.973 | < 5.00 | 0.889 | < 5.30 | 0.427 | 6.41
IST-SL1 (small cell lung carcinoma, semi-adherent) | 0.986 | < 5.00 | 0.958 | < 4.99 | 0.615 | 5.58 | 0.5 | 5.60 | 0.914 | < 5.29 | 0.96 | < 5.00 | 0.8 | 5.60 | 0.388 | 6.50
IST-SL2 (small cell lung carcinoma, suspension) | 0.927 | < 5.00 | 0.861 | 5.07 | 0.755 | 5.17 | 0.979 | < 4.40 | 0.697 | 5.94 | 0.975 | < 5.00 | 0.933 | < 5.30 | 0.153 | 7.26
JJN-3 (haematopoietic neoplasm, suspension) | 0.799 | 5.42 | 0.916 | < 4.99 | 0.851 | 4.95 | 0.749 | 4.96 | 0.993 | < 5.29 | 0.988 | < 5.00 | 0.797 | 5.72 | 0.332 | 6.62
JM1 (B-cell lymphoma, suspension) | 0.77 | 5.48 | 0.838 | 5.25 | 0.939 | < 4.70 | 0.663 | 5.18 | 0.953 | < 5.29 | 0.971 | < 5.00 | 0.821 | 5.63 | 0.507 | 6.18
JVM-2 (lymphoid neoplasm, suspension) | 0.64 | 5.77 | 0.929 | < 4.99 | 0.634 | 5.50 | 0.747 | 4.81 | 0.9 | < 5.29 | 0.951 | < 5.00 | 0.881 | < 5.30 | 0.906 | < 4.99
JVM-3 (lymphoid neoplasm, suspension) | 0.885 | < 5.00 | 0.987 | < 4.99 | 0.752 | 5.17 | 0.658 | 5.16 | 0.987 | < 5.29 | 0.973 | < 5.00 | 0.787 | 5.65 | 0.937 | < 4.99
JiyoyeP-2003 (Burkitt lymphoma, suspension) | 0.913 | < 5.00 | 0.991 | < 4.99 | 0.83 | 4.98 | 0.739 | 4.96 | 0.946 | < 5.29 | 0.97 | < 5.00 | 0.928 | < 5.30 | 0.739 | 5.56

Cell Line | AUC (Tretinoin) | pIC50 (Tretinoin) | AUC (GSK690693) | pIC50 (GSK690693) | AUC (UNC0638; [1]) | pIC50 (UNC0638; [1]) | AUC (UNC0638; [2]) | pIC50 (UNC0638; [2]) | AUC (WH-4-023) | pIC50 (WH-4-023) | AUC (SB-505124) | pIC50 (SB-505124) | AUC (BX-795) | pIC50 (BX-795) | AUC (PI-103) | pIC50 (PI-103)
KARPAS-45 (lymphoblastic leukaemia, suspension) | 0.97 | < 5.00 | 0.507 | 6.18 | 0.632 | 5.57 | 0.439 | 5.75 | 0.884 | 5.41 | 0.973 | < 5.00 | 0.599 | 6.25 | 0.303 | 6.70
KARPAS-231 (B-cell leukaemia, suspension) | 0.117 | 7.22 | 0.202 | 6.95 | 0.85 | 4.99 | – | – | 0.586 | 6.28 | 0.993 | < 5.00 | 0.757 | 5.86 | 0.031 | > 7.40
KARPAS-299 (anaplastic large cell lymphoma, suspension) | 0.991 | < 5.00 | 0.992 | < 4.99 | 0.638 | 5.55 | 0.678 | 5.15 | 0.976 | < 5.29 | 0.98 | < 5.00 | 0.925 | < 5.30 | 0.728 | 5.61
KARPAS-422 (B-cell lymphoma, suspension) | 0.901 | < 5.00 | 0.333 | 6.66 | 0.809 | 4.99 | 0.652 | 5.18 | 0.873 | 5.32 | 0.981 | < 5.00 | 0.8 | 5.62 | 0.165 | 7.21
KARPAS-620 (haematopoietic neoplasm, suspension) | 0.99 | < 5.00 | 0.554 | 6.06 | 0.722 | 5.32 | 0.488 | 5.63 | 0.985 | < 5.29 | 0.977 | < 5.00 | 0.938 | < 5.30 | 0.142 | 7.21
KCL-22 (chronic myeloid leukaemia, suspension) | 0.979 | < 5.00 | 0.898 | 5.04 | 0.822 | 5.03 | 0.634 | 5.26 | 0.409 | 6.73 | 0.981 | < 5.00 | 0.891 | 5.38 | 0.24 | 6.88
KE-37 (lymphoblastic leukaemia, suspension) | 0.956 | < 5.00 | 0.152 | 7.09 | 0.85 | 5.00 | 0.601 | 5.35 | 0.975 | < 5.29 | 0.985 | < 5.00 | 0.81 | 5.72 | 0.308 | 6.67
KELLY (neuroblastoma, adherent) | 0.877 | 5.07 | 0.989 | < 4.99 | 0.608 | 5.62 | 0.603 | 5.33 | 0.972 | < 5.29 | 0.839 | 5.22 | 0.86 | 5.45 | 0.498 | 6.20
KGN (ovary, adherent) | 0.977 | < 5.00 | 0.928 | < 4.99 | 0.789 | 4.96 | 0.64 | 5.18 | 0.677 | 5.95 | 0.834 | 5.07 | 0.797 | 5.53 | 0.2 | 7.18
KINGS-1 (glioma, adherent) | 0.978 | < 5.00 | 0.968 | < 4.99 | 0.802 | 4.84 | 0.587 | 5.33 | 0.64 | 6.04 | 0.951 | < 5.00 | 0.836 | < 5.30 | 0.686 | 5.58
KLE (endometrium, adherent) | 0.954 | < 5.00 | 0.868 | < 4.99 | 0.945 | < 4.70 | 0.848 | < 4.40 | 0.612 | 6.11 | 0.975 | < 5.00 | 0.959 | < 5.30 | 0.62 | 5.78
KM12 (large intestine, adherent) | 0.983 | < 5.00 | 0.846 | 5.07 | 0.981 | < 4.70 | 0.687 | 5.06 | 0.978 | < 5.29 | 0.984 | < 5.00 | 0.842 | 5.40 | 0.716 | 5.56
KM-H2 (Hodgkin lymphoma, suspension) | 0.971 | < 5.00 | 0.98 | < 4.99 | 0.988 | < 4.70 | 0.988 | < 4.40 | 0.945 | < 5.29 | 0.99 | < 5.00 | 0.993 | < 5.30 | 0.585 | 5.98
KMOE-2 (acute myeloid leukaemia, suspension) | 0.967 | < 5.00 | 0.946 | < 4.99 | 0.802 | 5.06 | 0.643 | 5.23 | 0.989 | < 5.29 | 0.969 | < 5.00 | 0.857 | 5.47 | 0.924 | < 4.99
KNS-42 (glioma, adherent) | 0.821 | 5.14 | 0.984 | < 4.99 | 0.854 | < 4.70 | 0.749 | 4.82 | 0.857 | < 5.29 | 0.976 | < 5.00 | 0.956 | < 5.30 | 0.881 | < 4.99
KOPN-8 (B-cell leukaemia, suspension) | 0.977 | < 5.00 | 0.96 | < 4.99 | 0.794 | 5.11 | 0.67 | 5.16 | 0.963 | < 5.29 | 0.982 | < 5.00 | 0.807 | 5.67 | 0.364 | 6.54

pIC50: −log10 of the molar value. By IC50 is meant the dose at which the fit gives 50% viability; where the fit passes the top or lowest dose, that dose stands as a limit. AUC, from the same fit, is the share of area under the viability curve across the 256-fold dose range; values near 1 show little effect. For some of these results: The top dose, if marked as inferred, was calculated from the reported fits. For some of these results: Drugs with an entry number were screened twice under separate entries, and the two screens often disagree.
